Data on 40 compounds can be found in patent publication US7816326B2, “Sulfur compounds as inhibitors of hepatitis C virus NS3 serine protease” (Schering Corporation, priority 2004, dated 2010).

Read-outs that look alike come from different tables or passages of the source.

The test has as its target Recombinant heterodimeric HCV NS3/NS4A protease (strain 1a) (Hepatitis C virus genotype 1a, UniProt P27958). As to the kind of experiment: Spectrophotometric assay for HCV protease inhibitory activity. The format is biochemical.
[1] abbreviates: HCV serine protease inhibitory activity ranges, read-out: Ki* Range.

Broadly, the Ki is a dissociation constant, usually derived from enzyme kinetics or from competition with a known ligand. Take `CCCC[C@H](NC(=O)[C@@H]1[C@@H]2[C@H](CN1C(=O)[C@@H](NC(=O)NC1([C@@H]3CCN(C4CC4)S3(=O)=O)CCCCC1)C(C)(C)C)C2(C)C)C(=O)C(=O)NC1CC1` [compound 1214]: the Ki under setting [1] is less than 75 nM. The same measure, in the same setting: the same measure for `CCCC[C@H](NC(=O)[C@@H]1[C@@H]2[C@H](CN1C(=O)[C@@H](NC(=O)NC1(CS(=O)(=O)N(C)CC)CCCCC1)C(C)(C)C)C2(C)C)C(=O)C(=O)NC1CC1` [compound 1282]: less than 75 nM. For `CN(CC(F)(F)F)S(=O)(=O)CC1(NC(=O)N[C@H](C(=O)N2C[C@H]3[C@@H]([C@H]2C(=O)N[C@@H](CCC2CC2)C(=O)C(=O)NC2CC2)C3(C)C)C2(C)CCCCC2)CCCCC1` [compound 1320], under setting [1], the Ki is less than 75 nM.

For the compound `CCN(CC)S(=O)(=O)CC1(NC(=O)N[C@H](C(=O)N2C[C@H]3[C@@H]([C@H]2C(=O)N[C@@H](CCC2CC2)C(=O)C(=O)NC2CC2)C3(C)C)C(C)(C)C)CCCCC1` [compound 1257], the Ki under setting [1] was less than 75 nM. Turning to `CCCC[C@H](NC(=O)[C@@H]1[C@@H]2[C@H](CN1C(=O)[C@@H](NC(=O)NC1(CS(=O)(=O)N(C)CC)CCCCC1)C1(C)CCCCC1)C2(C)C)C(=O)C(=O)NC1CC1` [compound 1290], the Ki under setting [1] was less than 75 nM.

Turning to `C=CCNC(=O)C(=O)C(CC1CC1)NC(=O)[C@@H]1[C@@H]2[C@H](CN1C(=O)[C@@H](NC(=O)N[C@H]([C@H]1CCN(C)S1(=O)=O)C(C)(C)C)C1(C)CCCCC1)C2(C)C` (some centres unmarked) [compound 1223], the Ki under setting [1] is more than 250 nM. On to `C[C@@H](C1(NC(=O)N[C@H](C(=O)N2C[C@H]3[C@@H]([C@H]2C(=O)N[C@@H](CCC2CC2)C(=O)C(=O)NC2CC2)C3(C)C)C2(C)CCCCC2)CCCCC1)S(=O)(=O)N(C)C` [compound 1412], for which the Ki under setting [1] is less than 75 nM. For the compound `CCC[C@H](NC(=O)[C@@H]1[C@@H]2[C@H](CN1C(=O)[C@@H](NC(=O)NC1(CS(=O)(=O)N(C)CC)CCCCC1)C1(C)CCCCC1)C2(C)C)C(=O)C(=O)NC1CC1` [compound 1292], the Ki under setting [1] is less than 75 nM. Take `CCCC[C@H](NC(=O)[C@@H]1[C@@H]2[C@H](CN1C(=O)[C@@H](NC(=O)NC1(CS(=O)(=O)N(C(C)C)C3CC3)CCCCC1)C(C)(C)C)C2(C)C)C(=O)C(=O)NC1CC1` [compound 1329]: the Ki under setting [1] is less than 75 nM. `CCN(C)S(=O)(=O)CC1(NC(=O)N[C@H](C(=O)N2C[C@H]3[C@@H]([C@H]2C(=O)N[C@@H](CC2CC2)C(=O)C(=O)NC2CC2)C3(C)C)C2(C)CCCCC2)CCCCC1` [compound 1293]: the inhibition constant (Ki) under setting [1] is less than 75 nM.

Regarding `CN(C(C)(C)C)S(=O)(=O)CC1(NC(=O)N[C@H](C(=O)N2C[C@H]3[C@@H]([C@H]2C(=O)N[C@@H](CCC2CC2)C(=O)C(=O)NC2CC2)C3(C)C)C(C)(C)C)CCCCC1` [compound 1273], the Ki under setting [1] is less than 75 nM. Same read-out and setting: in the case of `CCC[C@H](NC(=O)[C@@H]1[C@@H]2[C@H](CN1C(=O)[C@@H](NC(=O)NC1(CS(=O)(=O)N(C(C)C)C(C)C)CCCCC1)C1(C)CCCCC1)C2(C)C)C(=O)C(=O)NC1CC1` [compound 1355] it was less than 75 nM; in that of `CCN(CC)S(=O)(=O)CC1(NC(=O)N[C@H](C(=O)N2C[C@H]3[C@@H]([C@H]2C(=O)N[C@@H](CCC2CC2)C(=O)C(=O)NC2CC2)C3(C)C)C2CCCCC2)CCCCC1` [compound 1334], less than 75 nM; in that of `CC(C)N(C)S(=O)(=O)CC1(NC(=O)N[C@H](C(=O)N2C[C@H]3[C@@H]([C@H]2C(=O)N[C@@H](CCC2CC2)C(=O)C(=O)NC2CC2)C3(C)C)C2(C)CCCCC2)CCCCC1` [compound 1254], less than 75 nM. Turning to `CCC[C@H](NC(=O)[C@@H]1[C@@H]2[C@H](CN1C(=O)[C@@H](NC(=O)NC1(CS(=O)(=O)N(C)C(C)(C)C(F)(F)F)CCCCC1)C1(C)CCCCC1)C2(C)C)C(=O)C(=O)NC1CC1` [compound 1364], the Ki under setting [1] is less than 75 nM. As to `C[C@H](C1(NC(=O)N[C@H](C(=O)N2C[C@H]3[C@@H]([C@H]2C(=O)N[C@@H](CCC2CC2)C(=O)C(=O)NC2CC2)C3(C)C)C2(C)CCCCC2)CCCCC1)S(=O)(=O)N(C)C` [compound 1408], the Ki under setting [1] is less than 75 nM.

Take `CCCC[C@H](NC(=O)[C@@H]1[C@@H]2[C@H](CN1C(=O)[C@@H](NC(=O)NC1(CS(=O)(=O)N3CCC3)CCCCC1)C1(C)CCCCC1)C2(C)C)C(=O)C(=O)NC1CC1` [compound 1347]: the inhibition constant Ki under setting [1] was less than 75 nM.

With `CC(C)(C)[C@H](NC(=O)NC1(CS(=O)(=O)N2CCCC2)CCCCC1)C(=O)N1C[C@H]2[C@@H]([C@H]1C(=O)N[C@@H](CCC1CC1)C(=O)C(=O)NC1CC1)C2(C)C` [compound 1211], the Ki under setting [1] was less than 75 nM.

For the compound `CN(CC1CC1)S(=O)(=O)CC1(NC(=O)N[C@H](C(=O)N2C[C@H]3[C@@H]([C@H]2C(=O)N[C@@H](CC2CC2)C(=O)C(=O)NC2CC2)C3(C)C)C(C)(C)C)CCCCC1` [compound 1357], under setting [1], the Ki is less than 75 nM. Consider `CCC[C@H](NC(=O)[C@@H]1[C@@H]2[C@H](CN1C(=O)[C@@H](NC(=O)NC1([C@H](C)S(=O)(=O)N(C)C)CCCCC1)C1(C)CCCCC1)C2(C)C)C(=O)C(=O)NC1CC1` [compound 1413], for which the Ki under setting [1] was less than 75 nM. With `CCC[C@H](NC(=O)[C@@H]1[C@@H]2[C@H](CN1C(=O)[C@@H](NC(=O)NC1(CS(=O)(=O)N3CCCC3)CCCCC1)C(C)(C)C)C2(C)C)C(=O)C(=O)NC1CC1` [compound 1212], the Ki under setting [1] was less than 75 nM. As to `CN(C)S(=O)(=O)CC1(NC(=O)N[C@H](C(=O)N2C[C@H]3[C@@H]([C@H]2C(=O)N[C@@H](CCC2CC2)C(=O)C(=O)NC2CC2)C3(C)C)C(C)(C)C)CCCCC1` [compound 1201], the Ki under setting [1] was less than 75 nM. As for `CCCC[C@H](NC(=O)[C@@H]1[C@@H]2[C@H](CN1C(=O)[C@@H](NC(=O)NC1(CS(=O)(=O)N(C)Cc3ccccc3)CCCCC1)C(C)(C)C)C2(C)C)C(=O)C(=O)NC1CC1` [compound 1260], the Ki under setting [1] is less than 75 nM. As to `CCCC[C@H](NC(=O)[C@@H]1[C@@H]2[C@H](CN1C(=O)[C@@H](NC(=O)NC1(CS(=O)(=O)N(C)C(C)C)CCCCC1)C(C)(C)C)C2(C)C)C(=O)C(=O)NC1CC1` [compound 1248], the inhibition constant Ki under setting [1] is less than 75 nM. The same measure, in the same setting: the same measure for `CN(c1ccccn1)S(=O)(=O)CC1(NC(=O)N[C@H](C(=O)N2C[C@H]3[C@@H]([C@H]2C(=O)N[C@@H](CC2CC2)C(=O)C(=O)NC2CC2)C3(C)C)C(C)(C)C)CCCCC1` [compound 1395]: less than 75 nM. For `CCCC[C@H](NC(=O)[C@@H]1[C@@H]2[C@H](CN1C(=O)[C@@H](NC(=O)NC1([C@@H](C)S(=O)(=O)N(C)C3CC3)CCCCC1)C(C)(C)C)C2(C)C)C(=O)C(=O)NC1CC1` [compound 1415], under setting [1], the Ki is less than 75 nM. For the compound `CCC[C@H](NC(=O)[C@@H]1[C@@H]2[C@H](CN1C(=O)[C@@H](NC(=O)NC1(CS(=O)(=O)N(C)C(C)(C)C)CCCCC1)C1(C)CCCCC1)C2(C)C)C(=O)C(=O)NC1CC1` [compound 1278], under setting [1], the inhibition constant Ki was less than 75 nM. In the case of `CCCC[C@H](NC(=O)[C@@H]1[C@@H]2[C@H](CN1C(=O)[C@@H](NC(=O)NC1(CS(=O)(=O)N(CC)C(C)(C)C)CCCCC1)C(C)(C)C)C2(C)C)C(=O)C(=O)NC1CC1` [compound 1313], the Ki under setting [1] is less than 75 nM. Consider `CCC[C@H](NC(=O)[C@@H]1[C@@H]2[C@H](CN1C(=O)[C@@H](NC(=O)NC1(CS(=O)(=O)N(C)C(C)(C)CF)CCCCC1)C(C)(C)C)C2(C)C)C(=O)C(=O)NC1CC1` [compound 1366], for which the inhibitory constant (Ki) under setting [1] is less than 75 nM. For the compound `CCCC[C@H](NC(=O)[C@@H]1[C@@H]2[C@H](CN1C(=O)[C@@H](NC(=O)NC1(CS(=O)(=O)N(C)CC(F)(F)F)CCCCC1)C1(C)CCCCC1)C2(C)C)C(=O)C(=O)NC1CC1` [compound 1319], under setting [1], the Ki was less than 75 nM. Consider `CCCC[C@H](NC(=O)[C@@H]1[C@@H]2[C@H](CN1C(=O)[C@@H](NC(=O)NC1(CS(=O)(=O)N(C)C(C)C)CCCCC1)C1(C)CCCCC1)C2(C)C)C(=O)C(=O)NC1CC1` [compound 1253], for which, under setting [1], the inhibition constant Ki is less than 75 nM. As to `CCN(C(C)(C)C)S(=O)(=O)CC1(NC(=O)N[C@H](C(=O)N2C[C@H]3[C@@H]([C@H]2C(=O)N[C@@H](CC2CC2)C(=O)C(=O)NC2CC2)C3(C)C)C(C)(C)C)CCCCC1` [compound 1316], the Ki under setting [1] was less than 75 nM.

On to `CCCC[C@H](NC(=O)[C@@H]1[C@@H]2[C@H](CN1C(=O)[C@@H](NC(=O)NC1([C@@H](C)S(=O)(=O)N(C)C)CCCCC1)C(C)(C)C)C2(C)C)C(=O)C(=O)NC1CC1` [compound 1397], for which the Ki is 2 nM (HCV NS3/NS4A protease, chromogenic ester substrate, 30° C., pH 6.5, read-out: Ki*) and less than 75 nM under setting [1]. For `CC1([C@H](NC(=O)NC2(CS(=O)(=O)N3CCC3)CCCCC2)C(=O)N2C[C@H]3[C@@H]([C@H]2C(=O)N[C@@H](CCC2CC2)C(=O)C(=O)NC2CC2)C3(C)C)CCCCC1` [compound 1348], the Ki under setting [1] is less than 75 nM.

Turning to `C[C@@H](C1(NC(=O)N[C@H](C(=O)N2C[C@H]3[C@@H]([C@H]2C(=O)N[C@@H](CC2CC2)C(=O)C(=O)NC2CC2)C3(C)C)C(C)(C)C)CCCCC1)S(=O)(=O)N(C)C1CC1` [compound 1422], the Ki under setting [1] was less than 75 nM. For `CC(C)N(C1CC1)S(=O)(=O)CC1(NC(=O)N[C@H](C(=O)N2C[C@H]3[C@@H]([C@H]2C(=O)N[C@@H](CCC2CC2)C(=O)C(=O)NC2CC2)C3(C)C)C2(C)CCCCC2)CCCCC1` [compound 1376], the Ki under setting [1] was less than 75 nM. Regarding `CCC[C@H](NC(=O)[C@@H]1[C@@H]2[C@H](CN1C(=O)[C@@H](NC(=O)NC1(CS(=O)(=O)N(C(C)C)C3CC3)CCCCC1)C(C)(C)C)C2(C)C)C(=O)C(=O)NC1CC1` [compound 1331], the inhibition constant (Ki) under setting [1] is less than 75 nM.

As for `CC(C)N(C1CC1)S(=O)(=O)CC1(NC(=O)N[C@H](C(=O)N2C[C@H]3[C@@H]([C@H]2C(=O)N[C@@H](CC2CC2)C(=O)C(=O)NC2CC2)C3(C)C)C2(C)CCCCC2)CCCCC1` [compound 1363], the inhibitory constant (Ki) under setting [1] is less than 75 nM. Consider `CCCC[C@H](NC(=O)[C@@H]1[C@@H]2[C@H](CN1C(=O)[C@@H](NC(=O)NC1([C@H]3CCN(C4CC4)S3(=O)=O)CCCCC1)C(C)(C)C)C2(C)C)C(=O)C(=O)NC1CC1` [compound 1213], for which the Ki under setting [1] is less than 75 nM. With `CN(C)S(=O)(=O)CC1(NC(=O)N[C@H](C(=O)N2C[C@H]3[C@@H]([C@H]2C(=O)N[C@@H](CC2CC2)C(=O)C(=O)NC2CC2)C3(C)C)C(C)(C)C)CCCCC1` [compound 1251], the inhibition constant Ki under setting [1] is less than 75 nM.
